Results: the supplement of paper PMC10037445
The full ranking holds about 2,900 compounds; the median of “IRF Lucia reporter activity, fold change vs agonist alone” is about 0.9, and the highest 2% start at about 2.8. The list shows a part of the results.

What was measured:
RAW-Dual [1] = assay: IRF Lucia reporter activity, fold change vs agonist alone; cytotoxicity flag (confluency mask): not cytotoxic; higher = enhanced IRF activity
Method in brief: (§1)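 RAW-Dual macrophages (50,000 cells/well in DMEM, 384-well plates) received 50 nL of library stock by pin tool, then a PRR agonist 1 h later, and were kept at 37 °C, 5% CO2. After 20 hours, supernatant was read for IRF by QuantiLuc luminescence and for NF-κB by QuantiBlue absorbance at 620 nm. Reporter activity is fold change over agonist-alone wells. Cytotoxic wells had IncuCyte confluency below 70% of agonist controls in both mask sets.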

RAW-Dual [2] = assay: IRF Lucia reporter activity, fold change vs agonist alone; cytotoxicity flag (confluency mask): cytotoxic (confluency <70% of control); higher = enhanced IRF activity
Method in brief: as §1

RAW-Dual [3] = assay: IRF Lucia reporter activity, fold change vs agonist alone; higher = enhanced IRF activity; settings: library stock concentration (final ~1000-fold dilution): 10 mM, agonist: MPLA (TLR4) […]
Method in brief: as §1

[4] = agonist: 3'3'-cGAMP (STING) 10 ug/mL
[5] = cytotoxicity flag (confluency mask): cytotoxic (confluency <70% of control)
[6] = cytotoxicity flag (confluency mask): not cytotoxic

Cl.Cl.NC1CCC(NC2CC2c2ccccc2)CC1 (stereo unspecified) (library stock concentration (final ~1000-fold dilution): 10 mM)
IRF Lucia reporter activity (RAW-Dual [1]; [4]): 0.516
IRF Lucia reporter activity (RAW-Dual [1]; agonist: LPS (TLR4) 0.1 ug/mL): 1.33

O=S(=O)(O)c1ccc2cc(N=Nc3cc(S(=O)(=O)O)c4cccnc4c3O)ccc2c1 (library stock concentration (final ~1000-fold dilution): 10 mM)
IRF Lucia reporter activity (RAW-Dual [1]; [4]): 0.898
IRF Lucia reporter activity (RAW-Dual [1]; agonist: LPS (TLR4) 0.1 ug/mL): 0.915

COc1cc2c(Oc3ccc4[nH]c(C)cc4c3F)ncnc2cc1OCCCN1CCCC1 (library stock concentration (final ~1000-fold dilution): 10 mM)
IRF Lucia reporter activity (RAW-Dual [2]; [4]): 0.429
IRF Lucia reporter activity (RAW-Dual [2]; agonist: LPS (TLR4) 0.1 ug/mL): 0.07

COc1cc2c(Oc3ccc4[nH]c(C)cc4c3F)ncnc2cc1OCCCN1CCCC1
IRF Lucia reporter activity (RAW-Dual [3]; [5]): 1.86

CCc1nn(CCCN2CCN(c3cccc(Cl)c3)CC2)c(=O)n1CCOc1ccccc1.Cl
IRF Lucia reporter activity (RAW-Dual [3]; [6]): 1.29

CCc1nn(CCCN2CCN(c3cccc(Cl)c3)CC2)c(=O)n1CCOc1ccccc1.Cl (library stock concentration (final ~1000-fold dilution): 10 mM)
IRF Lucia reporter activity (RAW-Dual [1]; [4]): 0.663
IRF Lucia reporter activity (RAW-Dual [1]; agonist: LPS (TLR4) 0.1 ug/mL): 1.59

CC12CCC3c4ccc(O)cc4CCC3C1CCC2OC(=O)CCC1CCCC1 (stereo unspecified)
IRF Lucia reporter activity (RAW-Dual [3]; [5]): 1.23

CC12CCC3c4ccc(O)cc4CCC3C1CCC2OC(=O)CCC1CCCC1 (stereo unspecified) (library stock concentration (final ~1000-fold dilution): 10 mM)
IRF Lucia reporter activity (RAW-Dual [2]; [4]): 0.744
IRF Lucia reporter activity (RAW-Dual [2]; agonist: LPS (TLR4) 0.1 ug/mL): 1.3

COc1ccc(OC)c(C2C(C#N)=C(N)Oc3[nH]nc(-c4ccc5ccccc5c4)c32)c1 (stereo unspecified) (library stock concentration (final ~1000-fold dilution): 10 mM)
IRF Lucia reporter activity (RAW-Dual [1]; [4]): 0.357
IRF Lucia reporter activity (RAW-Dual [1]; agonist: LPS (TLR4) 0.1 ug/mL): 0.613

O=C1C[C@@H](c2ccc(O)cc2)Oc2cc(O)cc(O)c21 (library stock concentration (final ~1000-fold dilution): 10 mM)
IRF Lucia reporter activity (RAW-Dual [1]; [4]): 0.163
IRF Lucia reporter activity (RAW-Dual [1]; agonist: LPS (TLR4) 0.1 ug/mL): 0.257

Cc1ccc([N+](=O)[O-])cc1S(=O)(=O)N(C)C
IRF Lucia reporter activity (RAW-Dual [3]; [6]): 1.14

Cc1ccc([N+](=O)[O-])cc1S(=O)(=O)N(C)C (library stock concentration (final ~1000-fold dilution): 10 mM)
IRF Lucia reporter activity (RAW-Dual [1]; [4]): 1.11
IRF Lucia reporter activity (RAW-Dual [1]; agonist: LPS (TLR4) 0.1 ug/mL): 1.17

NC(=O)c1ccccn1 (library stock concentration (final ~1000-fold dilution): 10 mM)
IRF Lucia reporter activity (RAW-Dual [1]; [4]): 1.01
IRF Lucia reporter activity (RAW-Dual [1]; agonist: LPS (TLR4) 0.1 ug/mL): 1.45

NC(=O)c1ccccn1
IRF Lucia reporter activity (RAW-Dual [3]; [6]): 1.02

COc1cccc(-c2c(C)n(Cc3c(F)cccc3C(F)(F)F)c(=O)n(CC(NCCCC(=O)O)c3ccccc3)c2=O)c1F (stereo unspecified)
IRF Lucia reporter activity (RAW-Dual [3]; [6]): 1

COc1cccc(-c2c(C)n(Cc3c(F)cccc3C(F)(F)F)c(=O)n(CC(NCCCC(=O)O)c3ccccc3)c2=O)c1F (stereo unspecified) (library stock concentration (final ~1000-fold dilution): 10 mM)
IRF Lucia reporter activity (RAW-Dual [1]; [4]): 1.02
IRF Lucia reporter activity (RAW-Dual [1]; agonist: LPS (TLR4) 0.1 ug/mL): 0.714

Cl.N=C1CCCN1Cc1[nH]c(=O)[nH]c(=O)c1Cl (library stock concentration (final ~1000-fold dilution): 10 mM)
IRF Lucia reporter activity (RAW-Dual [1]; [4]): 1.08
IRF Lucia reporter activity (RAW-Dual [1]; agonist: LPS (TLR4) 0.1 ug/mL): 1.24

Cl.N=C1CCCN1Cc1[nH]c(=O)[nH]c(=O)c1Cl
IRF Lucia reporter activity (RAW-Dual [3]; [6]): 1.11

COc1ccccc1N1CCN(CCN(C(=O)C2CCCCC2)c2ccccn2)CC1.O=C(O)/C=C\C(=O)O
IRF Lucia reporter activity (RAW-Dual [3]; [6]): 0.961

COc1ccccc1N1CCN(CCN(C(=O)C2CCCCC2)c2ccccn2)CC1.O=C(O)/C=C\C(=O)O (library stock concentration (final ~1000-fold dilution): 10 mM)
IRF Lucia reporter activity (RAW-Dual [1]; [4]): 1.06
IRF Lucia reporter activity (RAW-Dual [1]; agonist: LPS (TLR4) 0.1 ug/mL): 0.996

COc1ccc(F)c(F)c1C(=O)c1cnc(NC2CCN(S(C)(=O)=O)CC2)nc1N
IRF Lucia reporter activity (RAW-Dual [3]; [6]): 1.07

COc1ccc(F)c(F)c1C(=O)c1cnc(NC2CCN(S(C)(=O)=O)CC2)nc1N (library stock concentration (final ~1000-fold dilution): 10 mM)
IRF Lucia reporter activity (RAW-Dual [1]; [4]): 1
IRF Lucia reporter activity (RAW-Dual [1]; agonist: LPS (TLR4) 0.1 ug/mL): 0.0195

C=CC(=O)Nc1cc(Nc2nccc(-c3cn(C4CC4)c4ccccc34)n2)c(OC)cc1N(C)CCN(C)C (library stock concentration (final ~1000-fold dilution): 10 mM)
IRF Lucia reporter activity (RAW-Dual [2]; [4]): 0.0197
IRF Lucia reporter activity (RAW-Dual [2]; agonist: LPS (TLR4) 0.1 ug/mL): 0.0818

Cc1ccc(C(C)C)cc1O
IRF Lucia reporter activity (RAW-Dual [3]; [6]): 1.26

Cc1ccc(C(C)C)cc1O (library stock concentration (final ~1000-fold dilution): 10 mM)
IRF Lucia reporter activity (RAW-Dual [1]; [4]): 1.18
IRF Lucia reporter activity (RAW-Dual [1]; agonist: LPS (TLR4) 0.1 ug/mL): 1.08

Cc1cc[nH]n1
IRF Lucia reporter activity (RAW-Dual [3]; [6]): 1.02

Cc1cc[nH]n1 (library stock concentration (final ~1000-fold dilution): 10 mM)
IRF Lucia reporter activity (RAW-Dual [1]; [4]): 1.02
IRF Lucia reporter activity (RAW-Dual [1]; agonist: LPS (TLR4) 0.1 ug/mL): 1.39

COc1ccc(-c2ccc3ncc4c(c3c2)n(-c2ccc(N3CCNCC3)c(C(F)(F)F)c2)c(=O)n4C)cn1.O=C(O)/C=C\C(=O)O
IRF Lucia reporter activity (RAW-Dual [3]; [5]): 0.0296

COc1ccc(-c2ccc3ncc4c(c3c2)n(-c2ccc(N3CCNCC3)c(C(F)(F)F)c2)c(=O)n4C)cn1.O=C(O)/C=C\C(=O)O (library stock concentration (final ~1000-fold dilution): 10 mM)
IRF Lucia reporter activity (RAW-Dual [2]; [4]): 0.0168
IRF Lucia reporter activity (RAW-Dual [2]; agonist: LPS (TLR4) 0.1 ug/mL): 0.0224
